# Results taken from a collection of fitness landscapes (doi:10.1016/j.celrep.2020.107928).
# Over roughly 81,000 sequences, “one-hybrid fitness for binding NBS DNA” has its median near -0.1; the highest 2% begin near 0.36. This is one part of the list.
# B1: Caulobacter ParB omega fusion; a variant is named by its letters at X, in order, B8GW30 (parent)
# chain: MESVVVGEPGMSEGRRGLGRGLSALLGEVDAAPAQAPGEQLGGSREAPIEILQRNPDQPRRTFREEDLEDLSNSIREKGVLQPILVRPSPDTAGEYQIVAGERAWRAAQRAGLKTVPIMVRELDDLAVLEIGIIENVQRADLNVLEEALSYKVLMEKFERTQENIAQTIGKSXSHVANXMRLLXLPDEVQSYLVSGELTAXHARAIAAAADPVALAKQIIEGGLSVRETEALARKAPNLSAGKSKGGRPPRVKDTDTQALESDLSSVLGLDVSIDHRGSTGTLTITYATLEQLDDLCNRLTRGI
# Variants of: B1
# Assay: one-hybrid fitness for binding NBS DNA (the Noc-binding site; scaled: cognate 1, non-cognate 0); higher = stronger binding
# Settings: with NBS DNA site
# How it was run: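 The reporter was HIS3, with the binding site 19 bp from the promoter, in E. coli USO used for bacterial one-hybrid selection of Caulobacter ParB libraries with four specificity codons randomised. Growth was on M9 lacking histidine, with 0.1 mM IPTG and 5 mM 3-AT, for 48 hours at 37°C. Illumina sequencing covered plasmids before and after selection; three replicate libraries were pooled and variants with under 10 reads dropped. A fitness score is the log change in variant-to-wild-type read ratio, rescaled to the cognate and non-cognate references.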
row,Variant,one-hybrid fitness for binding NBS DNA
1,KTTD,≤ 0.2
2,MVTC,≤ 0.2
3,RLTQ,≤ 0.2
4,SHMY,≤ 0.2
5,LPKM,≤ 0.2
6,PHPF,≤ 0.2
7,EHLC,≤ 0.2
8,AWTG,≤ 0.2
9,HAFC,≤ 0.2
10,RHHI,≤ 0.2
11,TVDF,≤ 0.2
12,SRNR,≤ 0.2
13,LAHL,≤ 0.2
14,LYTP,≤ 0.2
15,HCNR,≤ 0.2
16,RHTV,≤ 0.2
17,TGQW,≤ 0.2
18,KINS,≤ 0.2
19,QWEV,≤ 0.2
20,QPRL,≤ 0.2
21,MTIG,≤ 0.2
22,REPM,≤ 0.2
23,LNAT,≤ 0.2
24,NLGT,≤ 0.2
25,CLMS,≤ 0.2
26,KNST,≤ 0.2

row,Variant,one-hybrid fitness for binding NBS DNA
1,MHLY,≤ 0.2
2,PGGC,≤ 0.2
3,KPLF,≤ 0.2
4,QDSF,≤ 0.2
5,SCNC,≤ 0.2
6,VCKT,≤ 0.2
7,PQFM,≤ 0.2
8,HGNR,≤ 0.2
9,TPFY,≤ 0.2
10,VMHG,≤ 0.2
11,ATFD,≤ 0.2
12,CHTD,≤ 0.2
13,GPTP,≤ 0.2
14,EAGM,≤ 0.2
15,EMEL,≤ 0.2
16,HNTS,≤ 0.2
17,RWMM,≤ 0.2
18,AACY,≤ 0.2
19,VQSD,≤ 0.2
20,LRDT,≤ 0.2
21,NHKY,≤ 0.2
22,CVYI,≤ 0.2
23,DRTM,≤ 0.2
24,IRMD,≤ 0.2
25,AQGE,≤ 0.2
26,DDMG,≤ 0.2

row,Variant,one-hybrid fitness for binding NBS DNA
1,QYSL,≤ 0.2
2,FLIR,≤ 0.2
3,PCLL,≤ 0.2
4,PAHW,≤ 0.2
5,SFGL,≤ 0.2
6,DFYI,≤ 0.2
7,HQMC,≤ 0.2
8,LGPW,≤ 0.2
9,QEDI,≤ 0.2
10,NVYR,≤ 0.2
11,AAFT,≤ 0.2
12,RTDI,≤ 0.2
13,RNHG,≤ 0.2
14,PSAK,≤ 0.2
15,FGKK,≤ 0.2
16,NFML,≤ 0.2
17,PLYA,≤ 0.2
18,LTFT,≤ 0.2
19,NENS,≤ 0.2
20,QRPQ,≤ 0.2
21,AFNF,≤ 0.2
22,LRAV,≤ 0.2
23,SRQY,≤ 0.2
24,VGTI,≤ 0.2
25,DITA,≤ 0.2
26,PSAM,≤ 0.2

row,Variant,one-hybrid fitness for binding NBS DNA
1,FRDC,≤ 0.2
2,TDNQ,≤ 0.2
3,RCPF,≤ 0.2
4,TTGR,≤ 0.2
5,RAAL,≤ 0.2
6,QLHP,≤ 0.2
7,TGFD,≤ 0.2
8,TNTY,≤ 0.2
9,LMRS,≤ 0.2
10,PTWH,≤ 0.2
11,RRFN,0.23
12,IPGR,≤ 0.2
13,NHPS,≤ 0.2
14,AVRA,≤ 0.2
15,SQLT,≤ 0.2
16,PFPM,≤ 0.2
17,SCHP,≤ 0.2
18,HRLH,≤ 0.2
19,LPEP,≤ 0.2
20,TDAR,≤ 0.2
21,QEVG,≤ 0.2
22,CSHE,≤ 0.2
23,SFAR,≤ 0.2
24,EHQL,≤ 0.2
25,RWDR,≤ 0.2
26,SDMY,≤ 0.2

row,Variant,one-hybrid fitness for binding NBS DNA
1,TFSF,≤ 0.2
2,KSSM,≤ 0.2
3,SNLT,≤ 0.2
4,NTFH,≤ 0.2
5,ETDG,≤ 0.2
6,HVQS,≤ 0.2
7,LGPC,≤ 0.2
8,MSLM,≤ 0.2
9,QPTD,≤ 0.2
10,IAMH,≤ 0.2
11,QSWI,≤ 0.2
12,YFDS,≤ 0.2
13,KNWD,≤ 0.2
14,SLDK,≤ 0.2
15,ECLV,≤ 0.2
16,KTCS,≤ 0.2
17,QYRL,0.216
18,QIAW,≤ 0.2
19,YRPA,≤ 0.2
20,HHWN,≤ 0.2
21,RMMF,≤ 0.2
22,RRFA,0.569
23,PFEA,≤ 0.2
24,LYSY,≤ 0.2
25,ACTT,≤ 0.2
26,LYQR,≤ 0.2

row,Variant,one-hybrid fitness for binding NBS DNA
1,PHNF,≤ 0.2
2,AEGT,≤ 0.2
3,CCRD,≤ 0.2
4,WSKE,≤ 0.2
5,KWCC,≤ 0.2
6,EAAN,≤ 0.2
7,QCSI,≤ 0.2
8,WAWS,≤ 0.2
9,APRS,≤ 0.2
10,LYAC,≤ 0.2
11,MVSY,≤ 0.2
12,KSNL,≤ 0.2
13,SHYD,≤ 0.2
14,YPNF,≤ 0.2
15,KKRY,≤ 0.2
16,QFHA,≤ 0.2
17,RLQH,≤ 0.2
18,VQWW,≤ 0.2
19,KTIF,≤ 0.2
20,RGCN,≤ 0.2
21,RMFP,≤ 0.2
22,PARL,≤ 0.2
23,HEWS,≤ 0.2
